According to PubChem BioAssay AID624418 (National Center for Advancing Translational Sciences (NCATS), 2012):
Values joined by “and” are separate entries in the source; they are usually repeats but may differ in a detail not shown here. Identical values can stand only once. Hit rate of the full screen: of about 410,000 compounds, about 530 (0.13%) were called active. Inconclusive results, whose numbers are uncertain, are shown with a selection of clear calls. The call rests on the fitted dose curve; in most records, active means well fitted inhibition curve with a large enough effect; inconclusive means small, poorly fitted or top-dose-only effect, or another doubt; inactive means no such curve, though single readings can be large or run the other way. Where the call is inconclusive, the potency comes from a doubtful curve fit.

test: qHTS of GLP-1 Receptor Inverse Agonists: Cytotox Screen; conditions: HEK293 cAMP-luciferase reporter cells, luminescence, 24 h; activity change, negative = inhibition: at 38.3 µM (top of the series) unless noted
Procedure, shortened: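 Step one: seed cells (200 cells/uL, DMEM with 10% Nu serum, 1% pen-strep). Step two: 12-hour incubation at 37 deg C. Step three: pin 23 nL compound, incubate 24 hr. Step four: add luciferase reagent, read luminescence 12 min later.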
On the % scale 0 is the no-effect control and ±100 the full control effect; potency means the concentration at half of the fitted maximal effect.

SMILES | Potency | activity change, negative = inhibition
CCCc1nnc(NC(=O)c2nc(S(=O)(=O)Cc3ccc(C)cc3)ncc2Cl)s1 | inconclusive: 31.6 µM [inhibitor, single point] and inconclusive: 14.1 µM [inhibitor, single point] | –
COc1cc2c(cc1OC)C(c1ccccc1)N(C(=O)CCl)CC2 (centres undefined) | inconclusive: 7.94 µM [inhibitor, partial curve, poor fit] | –
C=CCn1c(Cc2cccs2)nnc1SCC(=O)c1ccc2ccccc2c1 | – | inactive: -12.6%
Cc1ccc(C#CC[N+]2(CC#Cc3ccc(C)cc3)CCCCC2)cc1 | – | inactive: 3.31%
O=[N+]([O-])c1ccc(NN=Cc2cccc3ccccc23)cc1 | – | inactive: 28.8%
COC(=O)c1cc(OC(=O)c2ccc(=O)[nH]c2)cc(C(=O)OC)c1 | inconclusive: 5.62 µM [inhibitor, full curve, poor fit] | –
O=C(CSc1nc2ccccc2o1)Nc1nccs1 | inconclusive: 15.8 µM [inhibitor, partial curve, poor fit] | –
Cc1[nH]c2ccccc2c1N=Nc1cc(C(=O)O)cc(C(=O)O)c1 | inconclusive: 11.2 µM [inhibitor, partial curve, poor fit] | –
COc1ccc(CNCC(O)(c2ccccc2)c2ccc(Cl)cc2)cc1 (centres undefined) | inconclusive: 28.2 µM [inhibitor, single point] | –
CCOc1ccccc1NS(=O)(=O)c1c(-c2ccc(C)cc2)csc1C(=O)OC | – | inactive: 1.13%
CCOC(=O)c1cc(-c2ccccc2)n(CC(=O)NCc2ccccc2OC)c1C | – | inactive: 1.68%
Fc1ccc(CNc2ncnc3c2c(-c2ccccc2)cn3-c2ccccc2)cc1 | – | inactive: -1.99%
Cc1cc(=O)n2c3ccccc3n(CC(O)CN3CCCCC3)c2c1C#N (centres undefined) | inconclusive: 11.2 µM [inhibitor, partial curve, poor fit] | –
CCOC(=O)c1cccc(-c2c(-c3ccccc3)ncc3cc(OC)c(OC)cc23)c1 | inconclusive: 0.501 µM [inhibitor, full curve, poor fit] | –
CC1(Cc2ccc(Cl)cc2)C(=O)Nc2ccc(-c3ccc(F)c(Cl)c3)cc21 (centres undefined) | inconclusive: 28.2 µM [inhibitor, single point] | –
O=C(NCc1ccccc1)C1C(c2ccc3c(c2)OCO3)=Nc2ccccc2N1C(=O)c1ccco1 (centres undefined) | inconclusive: 10 µM [inhibitor, partial curve] | –
CCN(CC)c1ccc(NC(=O)c2cccc(OC)c2)c(C)c1 | inconclusive: 10 µM [inhibitor, single point] | –
Cc1cc(C)c2c(=O)n(CC(=O)NC3CCCC3)sc2n1 | – | inactive: 5.06%
CCN(CC)CCCCN1c2ccccc2Sc2ccccc21 | inconclusive: 10 µM [inhibitor, partial curve, poor fit] | –
Cc1nnc(NC(=O)c2nc(S(=O)(=O)Cc3ccccc3)ncc2Cl)s1 | inconclusive: 28.2 µM [inhibitor, single point] | –
CCOC(=O)c1ccccc1Nc1cn(C(C)=O)c2ccccc12 | – | inactive: -11.4%
Cc1cc2nc3ccc(=[N+](C)C)cc-3sc2cc1N | inconclusive: 15.8 µM [inhibitor, partial curve, poor fit] | –
CC(=O)NC(c1ccc(N(C)C)cc1)c1cc(Cl)c2cccnc2c1O (centres undefined) | inconclusive: 2.82 µM [inhibitor, full curve] | –

SMILES | Potency | activity change, negative = inhibition
COc1cccc(NC(=O)CCCCCN2C(=O)[C@@H]3Cc4ccccc4CN3C2=O)c1 | inconclusive: 3.55 µM [inhibitor, full curve, poor fit] | –
Cn1cccc1Cc1nnc(SCC(=O)Nc2nccs2)n1C | – | inactive: -7.56%
COc1cc(/C=N/Nc2ccc(Cl)cc2)ccc1OC(=O)c1cccs1 | inconclusive: 11.2 µM [inhibitor, single point] | –
CC1=C(C(=O)Nc2ccc(Cl)cc2)C(C(C)C)n2nc(SCc3cccc(C)c3)nc2N1 (centres undefined) | – | inactive: -9.98%
COc1cccc(-c2nc3c(c(SCc4ccccc4)n2)Cc2c(CO)cnc(C)c2O3)c1 | – | inactive: 0.818%
COc1ccccc1/C=C/C=N/n1c(-c2ccncc2)n[nH]c1=S | – | inactive: 0.943% [at 1.53 µM]
COc1cc(CNC2CCCC2)c(Br)cc1OC1CCCC1 | inconclusive: 20 µM [inhibitor, single point] | –
O=C(Nn1c(O)c(C=C2N=c3ccccc3=N2)sc1=S)c1ccccc1Cl | inconclusive: 31.6 µM [inhibitor, single point] | –
O=C(CCCN1C(=O)/C(=C/c2cccs2)SC1=S)Nc1cccc(O)c1 | inconclusive: 22.4 µM [inhibitor, single point] | –
C/C(=N\NC(=S)Nc1c(C)cccc1C)c1ccc(OC(F)F)cc1 | inconclusive: 6.31 µM [inhibitor, partial curve, poor fit] | –
S=C(NCCCc1ccccc1)NCc1ccccc1 | inconclusive: 28.2 µM [inhibitor, single point] | –
COc1cccc(/C=N/Nc2cc(C)nc(-c3ccccc3O)n2)c1O | inconclusive: 6.31 µM [inhibitor, partial curve, poor fit] | –
Cc1ccc(Cn2c(=O)c3cccnc3n(CC(=O)Nc3cccc(C(F)(F)F)c3)c2=O)cc1 | inactive | –
CCOc1cc(/C=C/C(=O)c2ccc(O)cc2)ccc1OCC(=O)N(C)C | inconclusive: 14.1 µM [inhibitor, single point] | –
O=[N+]([O-])c1c(NCCCO)cc(N2CCCCCC2)c2nonc12 | inconclusive: 11.2 µM [inhibitor, single point] | –
O=C(CN1CCC(n2nnc3cc(F)ccc32)CC1)N1CCc2ccccc2C1 | inconclusive: 10 µM [inhibitor, partial curve] | –
O=C(COc1cccc(C(F)(F)F)c1)Nc1ccccc1N1CCCCC1 | – | inactive: -4.04%
O=C(CCN1CCN(C(c2ccccc2)c2ccccc2)CC1)N/N=C/c1ccc(O)cc1O | inconclusive: 3.16 µM [inhibitor, full curve, poor fit] | –
O=C(NCc1ccc(F)cc1)c1cc(-c2cccs2)on1 | – | inactive: -3.65%
C[C@H]1CN([C@@H](C)CO)C(=O)CCCn2nncc2CO[C@@H]1CN(C)S(=O)(=O)c1ccc(-n2cccn2)cc1 | – | inactive: -2.52%
CCC(C(=O)Nc1ccc(C(=O)OC)cc1)n1c(=O)c(-c2ccccc2NC(C)=O)nc2ccccc21 (centres undefined) | – | inactive: -13.8%
Cc1ccc(NC(=S)Nc2cccc3ccccc23)cc1F | inconclusive: 28.2 µM [inhibitor, single point] | –
Cc1ccc(NC(=O)c2cc(S(=O)(=O)NCCC3=CCCCC3)ccc2F)cc1F | inactive | –

SMILES | Potency | activity change, negative = inhibition
O=C1CCCC/C1=N\Nc1ccc(OCc2ccccc2)cc1 | – | inactive: -23.2%
CCC(=O)NC(=S)Nc1ccc(Cl)cn1 | inconclusive: 12.6 µM [inhibitor, single point] | –
CC(C)(C)C(=O)Nc1cc(C(F)(F)F)ccc1-n1ccnc1 | – | inactive: -10.8%
O=C(c1ccccc1F)N1CCN(c2ccc([N+](=O)[O-])c(NCc3cccnc3)c2)CC1 | inconclusive: 11.2 µM [inhibitor, single point] | –
COC(=O)c1ccc(COc2ccc3c(c2)CCC3)o1 | inconclusive: 14.1 µM [inhibitor, single point] | –
COc1ccc(NC(=O)CN(Cc2ccccc2)S(=O)(=O)c2ccc(C)cc2)cc1Cl | – | inactive: -4.97%
COC(=O)c1ccc(CNC(=O)C(C)N=C2NS(=O)(=O)c3ccccc32)cc1 (centres undefined) | – | inactive: -0.777%
CCCCCc1cc(=O)oc2c(C(CCN3CCCCC3)c3cc(OC)c(OC)c(OC)c3)c(OC)cc(OC)c12 (centres undefined) | inconclusive: 28.2 µM [inhibitor, single point] | –
CN1CCN(CCC(=O)N2c3ccccc3Sc3ccc(Cl)cc32)CC1 | inconclusive: 28.2 µM [inhibitor, single point] | –
CCOC(=O)c1c(OCC)[nH]c2c1cc(O)c1ccccc12 | inconclusive: 22.4 µM [inhibitor, single point] | –
CCOC(=O)c1c(Nc2ccc(C)cc2)nnc(-c2ccccc2)c1-c1ccccc1 | – | inactive: 0.0294%
Cn1c(=O)n(-c2ccc(F)c(Cl)c2)c(=O)c2sc3ccccc3c21 | – | inactive: 0.202%
Cc1sc2nc(CN3CCCC3)nc(N3CCN(S(=O)(=O)c4cccs4)CC3)c2c1C | inconclusive: 20 µM [inhibitor, single point] | –
N#Cc1ccc(C(=O)NC(=S)N2CCOCC2)cc1 | inconclusive: 28.2 µM [inhibitor, single point] | –
Cc1ccc(C)c(NC(=O)CN(C)C(=O)c2ccc(-c3cccc(C(F)(F)F)c3)o2)c1 | inconclusive: 11.2 µM [inhibitor, partial curve, poor fit] | –
CC(C)C(=O)N1CCN(c2nc(-c3ccccc3)c3c(c2C#N)CCCC3)CC1 | inconclusive: 11.2 µM [inhibitor, single point] | –
CCN1CCN(c2cc(C)c3cc(NC(=S)N4CCCC4)ccc3n2)CC1 | inconclusive: 3.55 µM [inhibitor, partial curve, poor fit] | –
NC(=S)N/N=C1\CC(c2ccc3c(c2)OCCCO3)Oc2ccc(F)cc21 (centres undefined) | inconclusive: 5.01 µM [inhibitor, full curve] | –
CCOC(=O)CCCc1ccc(/C(C)=N/NC(=S)NC)cc1 | inconclusive: 10 µM [inhibitor, partial curve, poor fit] | –
Cc1ccccc1OCC(=O)N/N=C/c1cccc2cccnc12 | inconclusive: 28.2 µM [inhibitor, single point] | –
Cc1ccc(CN(C)C(=O)C2CCC(=O)N(CCc3ccccc3)C2)o1 (centres undefined) | – | inactive: 9.1%
COC(=O)c1c(C)cccc1C1CN=NC12Cc1ccccc1C2=O (centres undefined) | – | inactive: -4.98%
CC(C)CCC1=NN(C(=O)c2ccco2)C(O)(C(F)(F)F)C1 (centres undefined) | inconclusive: 12.6 µM [inhibitor, partial curve, poor fit] | –
